From the supplement of paper PMC3334620
The full ranking holds about 33,000 sequences; the median of “E-score (-0.5 to 0.5)” is about -0.021, and the highest 2% start at about 0.32. The list shows a part of the results.

molecular target: T1, Zap1 (UniProt P47043); assay: PBM E-score (8-mer binding enrichment) (E-score (-0.5 to 0.5)); higher = stronger / more preferred TF binding; most listed sequences are background and not binding sites; details: protein concentration: 200 nM; construct: GST-full length
T1 sequence: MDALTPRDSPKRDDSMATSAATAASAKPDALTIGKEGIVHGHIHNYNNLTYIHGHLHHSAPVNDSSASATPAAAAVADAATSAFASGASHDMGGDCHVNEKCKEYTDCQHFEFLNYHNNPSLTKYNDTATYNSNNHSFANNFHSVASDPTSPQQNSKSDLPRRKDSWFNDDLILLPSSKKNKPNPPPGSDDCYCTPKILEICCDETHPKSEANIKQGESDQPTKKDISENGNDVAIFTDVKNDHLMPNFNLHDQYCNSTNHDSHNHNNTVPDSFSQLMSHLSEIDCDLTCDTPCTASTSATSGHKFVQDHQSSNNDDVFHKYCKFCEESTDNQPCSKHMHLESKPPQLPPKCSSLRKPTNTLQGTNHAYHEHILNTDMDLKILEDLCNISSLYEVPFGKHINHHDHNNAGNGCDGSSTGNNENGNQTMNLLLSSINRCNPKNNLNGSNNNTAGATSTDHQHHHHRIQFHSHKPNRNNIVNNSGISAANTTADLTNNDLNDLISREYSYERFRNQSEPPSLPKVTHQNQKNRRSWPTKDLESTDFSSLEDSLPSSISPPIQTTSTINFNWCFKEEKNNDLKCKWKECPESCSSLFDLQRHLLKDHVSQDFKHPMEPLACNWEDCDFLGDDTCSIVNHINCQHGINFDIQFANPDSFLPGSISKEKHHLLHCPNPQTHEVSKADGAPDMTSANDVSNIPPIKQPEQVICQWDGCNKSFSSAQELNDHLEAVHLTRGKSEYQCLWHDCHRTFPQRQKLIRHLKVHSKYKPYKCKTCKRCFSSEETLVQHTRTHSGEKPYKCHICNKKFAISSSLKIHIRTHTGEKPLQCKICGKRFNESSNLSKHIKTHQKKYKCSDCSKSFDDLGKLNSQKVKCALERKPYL
Method: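 Universal 'all 10-mer' protein binding microarrays (Agilent AMADID 015681) probed with GST-tagged S. cerevisiae TFs (full-length or DBD) made by in vitro transcription/translation (PURExpress), about 100-200 nM. Bound TF was detected with fluorescent anti-GST. Each ungapped 8-mer (which stands for itself and its reverse complement) is scored by the PBM enrichment score (E-score), a modified Wilcoxon-Mann-Whitney statistic from -0.5 to +0.5, computed with the Universal PBM Analysis Suite. Scale: above 0.35 generally sequence-specific binding.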

Sequence | PBM E-score
ACGGCACT | 0.0741
AAAACTCA | 0.124
CCGTCCTA | -0.24
ACAGCTAT | -0.073
CAGTGACG | -0.0109
GCTGTTAA | 0.0474
ACGCGTTG | -0.0853
ATCGGGTA | 0.174
TACATCGA | 0.0772
CTTACGCC | -0.171
CCAGTTCG | 0.156
AGGAATCC | -0.0232
GCCTAAAA | 0.142
CCTGCGCA | -0.222
GTACCAAC | 0.204
ATCGAAAC | 0.0832
CAGGCCCA | -0.235
ACGCTGAC | -0.0646
AGAGGCCC | -0.108
ATTTTATC | 0.154
AGCGATTC | -0.127
GAGGTTAA | 0.429
GCCAACCC | 0.109
ACTCCTTG | 0.0145
ACGCTACC | -0.0555

Sequence | PBM E-score
AAATACGA | 0.0646
CCATAGTA | 0.213
AGTGAACG | 0.0023
CTGCTACC | 0.0661
ATCGTGAC | 0.176
GCTTAGTA | -0.0005
ATTCTCGA | 0.111
CAATTACC | 0.249
ATCTAAAT | 0.136
CTTCGGTC | 0.136
CTTTCGCA | 0.0116
AACTAAAC | 0.181
CGCCGGAG | -0.138
CAGGAGGC | -0.133
GCCATCGA | -0.0273
CACGAGGC | 0.144
CGGCAAAA | -0.0785
GCAAAAGC | -0.219
CGGTCGTA | -0.262
ACGAGGCA | 0.115
CAAGGTAG | 0.303
GGGGTCCA | 0.0229
ACGGATAG | 0.0705
GGAACTGA | 0.0127
ACGGCCGA | -0.005

Sequence | PBM E-score
CAGCGTCG | -0.209
CCAGAGCC | -0.0556
GACTAATA | 0.0413
CGCTTCTC | -0.289
ATGTAAGG | 0.153
CTGGCCAC | 0.0644
ACCTGTCC | -0.123
GATCTATA | -0.026
CAAACCCG | -0.043
AGTTAGCC | -0.0837
TAGAAATA | 0.253
TGGTCGAA | -0.229
AGTGAACA | 0.0956
GTTGTTGA | 0.16
CGCTTTAG | -0.136
GATTTGTA | 0.187
AGAATGCC | -0.0954
GAAATGAC | 0.103
AATATGCG | -0.131
AATTTTGC | -0.0522
AAGCCCTG | -0.181
GCAGGACC | -0.0212
GCCGGAGC | -0.21
CCCATTCG | 0.0172
CCACTATA | 0.121

Sequence | PBM E-score
GTTTCCGA | 0.0406
CGCTGGCA | -0.0467
CAGCATCG | -0.198
AGGGATTC | -0.108
CCATATGC | -0.0353
CCTATTAG | 0.00905
CCCCATAA | 0.197
AGTTTGCA | -0.0409
GCGCCATA | 0.0673
AAATGCAG | 0.0474
TCAGGGAA | 0.0386
TCTTGCCA | -0.149
CGTCGTAA | -0.082
AATGGGTC | 0.214
CACAGATC | -0.0859
CCGATCCC | -0.261
GGCACGAC | -0.0477
AAGATTGG | 0.00145
AAATTCTG | 0.0992
CAACTTCC | 0.0743
ACCTAGTG | -0.0146
CACAGCTC | -0.196
AGAGACTA | -0.14
CATGTGGG | 0.0729
AACGGTTC | 0.107

Sequence | PBM E-score
CACAGTGA | 0.0447
ACCTGTTC | 0.0688
AAAGACAA | 0.0575
CCGGCAAA | -0.0539
GTAATAAA | 0.216
ACACCATC | -0.13
AGCACAAT | 0.0553
GTCAGTTA | 0.0703
ACCGACGT | -0.084
GCACGTTA | -0.116
ATCTACTG | 0.079
CCCAGGCG | -0.0421
CTCTTCTC | -0.237
ACTTGCTC | -0.197
CATTCACA | 0.0556
ACCATAAT | 0.255
CATGTTTA | 0.0879
AAATGTTC | 0.0916
AACCCATG | 0.262
CTTTGAGA | 0.0827
ATTCCGCA | -0.00942
CCCCCTTC | -0.372
CGTTACGC | -0.0139
CAACATTC | -0.167
TGCCACAA | 0.151

Sequence | PBM E-score
CTAAAAGC | -0.179
CAAAATGG | 0.182
CCCGAACG | 0.124
AGCGCTTC | -0.171
CACTTGGG | 0.0892
ACCCGGGT | 0.317
TAACGGAA | 0.104
AAGAGCAT | -0.107
ACATGGTG | 0.062
CTCGAGGA | -0.0456
ACGGGACC | -0.175
ATGGCAAG | -0.147
AGTATCAG | -0.2
CTGATCCC | -0.303
CTACATAG | 0.00113
CCCCTCGG | 0.34
AAGCTCAC | -0.16
AGATGGCT | -0.157
ACCACGAC | 0.18
GCTTGCGA | 0.0401
ATTCATTG | 0.0157
AGCGTAGA | -0.196
AGCTGCCC | -0.165
AATCAGGA | -0.0462
ATAAGTGA | 0.0161

Sequence | PBM E-score
GCCAATAC | -0.132
ATCACATG | -0.0846
ACAACGGA | 0.0273
GACCCGCC | 0.131
CATCCCGC | -0.00733
ACTCGCCG | -0.175
CAGACTCA | 0.024
GTACACCA | 0.0765
ATACGAGG | -0.0493
AGCCGCGA | 0.0301
GGACGATA | -0.128
CGTCGCGC | -0.192
GATTCCGA | -0.0994
AAACTAGT | 0.101
AAAGATTA | -0.00605
CGCTCTTC | -0.228
ATGAGCGC | -0.0149
GGACAGAA | 0.0329
TCGCCTAA | -0.064
CCTAACAG | 0.142
ACGTTATG | 0.0376
GCTTATTA | 0.0903
